The list shows a part of the results. At the low end of the ranking, values are background and their order means little.
target: SIX1-Q177R homeodomain (UniProt Q15475); experiment: universal protein binding microarray; details: Universal all-10-mer PBM (8x60K, AMADID 030236), 300 nM GST-tagged protein, Alexa Fluor 488 anti-GST; buffer, salt, pH and temperature not stated; high values mean tight binding; most listed sequences are background and not binding sites; double strand, one strand shown

Sequence	binding signal
CCTCTGGA	-0.0762 E-score
CTGAGCCA	-0.125 E-score
ACCCAGAC	0.14 E-score
TCGAAAGA	-0.222 E-score
AAAAGCGA	-0.0478 E-score
AAATGCTA	0.0787 E-score
ACCGGGTG	0.322 E-score
ACCTTGAC	0.024 E-score
AGAGTCTA	-0.261 E-score
CATCGGGC	-0.033 E-score
CGGAGTTC	0.0471 E-score
ATTATGCA	-0.0722 E-score
CCTACTAC	0.13 E-score
ACCAATAT	0.0298 E-score
ACTCAACA	0.172 E-score
AGCTACAC	0.435 E-score
AGGACTGG	-0.00034 E-score
AGCAGGCA	-0.0461 E-score
AAGCTTCC	-0.314 E-score
GAACCTAC	-0.0129 E-score
AAAGGCGG	0.0658 E-score
ACAACGCC	0.0221 E-score

Sequence	binding signal
AGAGCATC	-0.263 E-score
CTCACCCC	0.0749 E-score
AGCCATGG	-0.0321 E-score
CATGGAGC	-0.256 E-score
CAGACAGG	-0.037 E-score
GCAGTATA	-0.0555 E-score
ATTTCTTC	-0.158 E-score
CCCCTCAC	0.203 E-score
ACGGAGAA	-0.0423 E-score
GAGAAACC	0.0917 E-score
GCCTCCAC	-0.204 E-score
AGCTGTCC	-0.282 E-score
ATCCCACA	0.192 E-score
CACGGTAG	0.131 E-score
ACAGAGGG	0.0759 E-score
AGCACAAT	-0.0438 E-score
ACGGTCCT	-0.129 E-score
ATGAGTCA	-0.096 E-score
AGTTTGAT	-0.138 E-score
TACTTACA	0.102 E-score
AGGACGCG	0.082 E-score
GCTGCGGA	-0.0776 E-score

Sequence	binding signal
CAACCTAC	0.0683 E-score
CCACGGTA	-0.12 E-score
TCGGTAAA	0.111 E-score
CAGTGTCC	0.374 E-score
ATAGGTTG	-0.104 E-score
GTCGCCCA	-0.193 E-score
ACTCGGCG	0.118 E-score
GAACCCCC	0.244 E-score
AGCGACCG	-0.259 E-score
AGGGACTG	-0.173 E-score
GATGGCCA	-0.146 E-score
TCGGACGA	-0.214 E-score
CAGACCCG	-0.0489 E-score
GCCTGGTA	-0.00962 E-score
TATTCGGA	-0.0564 E-score
CAGCTGAC	-0.0343 E-score
AGAACGCG	-0.0255 E-score
CACAGTGA	-0.0812 E-score
GCCGGCGC	-0.117 E-score
TCTGAAAA	-0.09 E-score
GCAAGATA	-0.123 E-score
ACCGTTAC	0.0536 E-score

Sequence	binding signal
AGGGCGCA	-0.151 E-score
TACCCGCA	0.142 E-score
GGGCCCCC	-0.0863 E-score
CTCGGTCA	0.0784 E-score
ACTTGGTG	0.288 E-score
AGATCTAC	-0.22 E-score
AATGGTGT	0.475 E-score
ATGGCGGA	-0.183 E-score
AAACGTCC	-0.193 E-score
ATCGCTAG	-0.175 E-score
ATCTCACC	0.155 E-score
AATCACTA	-0.144 E-score
CCAAGCGC	-0.0916 E-score
AACAGTAG	-0.221 E-score
ATTAACTC	0.0753 E-score
CCGACCGC	-0.183 E-score
GTACTACA	0.277 E-score
CATCCAAA	-0.0554 E-score
AGGCCTTG	-0.0716 E-score
GGAATCGA	0.0353 E-score
